According to patent US11026943B2, “Aminoquinoline derivatives and uses thereof” (UNIVERSITY OF DELHI, priority 2012, dated 2021):

Test system: primary microglia from P1 rat brains (IL-1β, IL-6, TNF-α, iNOS mRNA)

## CCN(CC)CCCC(C)Nc1ccnc2cc(Cl)ccc12 (stereo not shown) [CQ, chloroquine]
  LPS-induced expression of proinflammatory cytokines: suppresses
